# According to patent US20240124614A1:
# Positions count from the first letter of the chain named.
# B1: hT4VL.FRv40640 (antibody, human IgG1, kappa)
# heavy: EVQLVESGGGLVQPGGSLRLSCAASGYTFTSYVMHWVRQAPGKGLEWVSAINPYNDGNYYADSVKGRFTISRDNSRKTLYLQMNSLRAEDTAVYYCARGAYKRGYAMDYWGQGTTVTVSSASTKGPSVFPLAPSSKSTSGGTAALGCLVKDYFPEPVTVSWNSGALTSGVHTFPAVLQSSGLYSLSSVVTVPSSSLGTQTYICNVNHKPSNTKVDKKV[human IgG1 Fc not given here]GSGGGSVTGYRLFEEIL
# light: DIQMTQSPSSLSASVGDRVTITCKSSQSLFNDKTRKNYLAWYQQKPGKAPKLLIYWASYRESGVPARFSGSGSGTDFTLTISSLEPEDFAVYYCQQFYYQMYTFGQGTKVEIKRTVAAPSVFIFPPSDEQLKSGTASVVCLLNNFYPREAKVQWKVDNALQSGNSQESVTEQDSKDSTYSLSSTLTLSKADYEKHKVYACEVTHQGLSSPVTKSFNRGEC
# B2: hT4VL.FRv40611 (antibody, human IgG1, kappa)
# heavy: B1 heavy
# light: B1 light with S58I, Y59T
# B3: hT4VL.FRv40697 (antibody, human IgG1, kappa)
# heavy: B1 heavy
# light: B1 light with W56I, Y59N
# B4: hT4VL.FRv40648 (antibody, human IgG1, kappa)
# heavy: B1 heavy
# light: B1 light with Y59T, R60K
# B5: hT4VL.FRv40696 (antibody, human IgG1, kappa)
# heavy: B1 heavy
# light: B1 light with W56I, S58F, Y59T
# B6: hT4VL.FRv40608 (antibody, human IgG1, kappa)
# heavy: B1 heavy
# light: B1 light with S58F, Y59T
# B7: hT4VL.FRv40569 (antibody, human IgG1, kappa)
# heavy: B1 heavy
# light: B1 light with W56A, Y59T
# B8: hT4VL.FRv40584 (antibody, human IgG1, kappa)
# heavy: B1 heavy
# light: B1 light with W56T, Y59T
# B9: hT4VL.FRv40698 (antibody, human IgG1, kappa)
# heavy: B1 heavy
# light: B1 light with W56I, Y59T, R60V
# B10: hT4VL.FRv40573 (antibody, human IgG1, kappa)
# heavy: B1 heavy
# light: B1 light with W56G, Y59T
# B11: hT4VL.FRv40563 (antibody, human IgG1, kappa)
# heavy: B1 heavy
# light: B1 light with Y59T
# B12: hT4VL.FRv40585 (antibody, human IgG1, kappa)
# heavy: B1 heavy
# light: B1 light with W56V, Y59T
# B13: hT4VL.FRv40633 (antibody, human IgG1, kappa)
# heavy: B1 heavy
# light: B1 light with Y59N
# B14: hT4VL.FRv40575 (antibody, human IgG1, kappa)
# heavy: B1 heavy
# light: B1 light with W56I, Y59T
# B15: hT4VL.FRv4 (antibody, human IgG1, kappa)
# heavy: B1 heavy
# light: B1 light with I2L, Q3V, D32S, K33R, Y59T, F97Y, Q100H
# B16: hT4VL.FRv40564 (antibody, human IgG1, kappa)
# heavy: B1 heavy
# light: B1 light with D32E, Y59T, F97E, Q100E, M101P
# B17: hT4VL.FRv40565 (antibody, human IgG1, kappa)
# heavy: B1 heavy
# light: B1 light with D32E, Y59T, Q100E, M101P
# B18: hT4VL.FRv40567 (antibody, human IgG1, kappa)
# heavy: B1 heavy
# light: B1 light with D32E, Y59T, M101P
# B19: hT4VL.FRv40560 (antibody, human IgG1, kappa)
# heavy: B1 heavy
# light: B1 light with Y59T, F97E, M101P
# B20: hT4VL.FRv40568 (antibody, human IgG1, kappa)
# heavy: B1 heavy
# light: B1 light with N31E, D32S, K33S, R35S, Y59T, Q95Y, F97Y, M101P
# B21: hT4VL.FRv40561 (antibody, human IgG1, kappa)
# heavy: B1 heavy
# light: B1 light with Y59T, M101P
# B22: hT4VL.FRv40566 (antibody, human IgG1, kappa)
# heavy: B1 heavy
# light: B1 light with D32E, Y59T, F97E, M101P
# B23: hT4VL.FRv40562 (antibody, human IgG1, kappa)
# heavy: B1 heavy
# light: B1 light with Y59T, F97E
# B24: hT4VL.FRv40559 (antibody, human IgG1, kappa)
# heavy: B1 heavy
# light: B1 light with Y59T, Q100E, M101P
# Molecular target: ECM (extracellular matrix)
# Assay: ECL plate assay on coated ECM (Matrigel), antibody 3 ug/mL, pH 5.8
row,ECM binding vs Control Ab (pH 5.8) (ratio vs Control Ab),Binder
1,22.4,B1
2,19.3,B2
3,16.8,B3
4,13.4,B4
5,18,B5
6,17.8,B6
7,23,B7
8,24.1,B8
9,8.6,B9
10,20.9,B10
11,16,B11
12,21.4,B12
13,18.7,B13
14,19,B14

# Molecular target: ECM (extracellular matrix)
# Assay: ECL plate assay on coated ECM (Matrigel)
ECM binding vs Control Ab (pH 5.8) (fold vs Control Ab),ECM binding vs Control Ab (pH 7.4) (fold vs Control Ab),Binder
71.4,13.1,B15

# Molecular target: ECM (extracellular matrix)
# Assay: ECL plate assay on coated ECM (Matrigel), antibody 3 ug/mL, pH 7.4
row,ECM binding vs Control Ab (pH 7.4) (ratio vs Control Ab),Binder
1,9.89,B15
2,2.65,B16
3,2.62,B17
4,3.81,B18
5,3.13,B19
6,1.76,B20
7,3.83,B21
8,3.24,B22
9,2.03,B23
10,2.4,B24
11,3.01,B11

# Molecular target: ECM (extracellular matrix)
# Assay: ECL plate assay on coated ECM (Matrigel)
# Remark: another data set of the same source
ECM binding vs Control Ab (pH 5.8) (fold vs Control Ab),ECM binding vs Control Ab (pH 7.4) (fold vs Control Ab),Binder
91.9,12,B15

# Molecular target: ECM (extracellular matrix)
# Assay: ECL plate assay on coated ECM (Matrigel)
# Remark: another data set of the same source
ECM binding vs Control Ab (pH 5.8) (fold vs Control Ab),ECM binding vs Control Ab (pH 7.4) (fold vs Control Ab),Binder
99.1,15.5,B15

# Molecular target: ECM (extracellular matrix)
# Assay: ECL plate assay on coated ECM (Matrigel), antibody 3 ug/mL, pH 5.8
# Remark: another data set of the same source
row,ECM binding vs Control Ab (pH 5.8) (ratio vs Control Ab),Binder
1,79.7,B15
2,42.5,B16
3,39.7,B17
4,49.2,B18
5,56.7,B19
6,11.8,B20
7,59.1,B21
8,50,B22
9,31.1,B23
10,41.9,B24
11,25.1,B11

# Molecular target: ECM (extracellular matrix)
# Assay: ECL plate assay on coated ECM (Matrigel), antibody 3 ug/mL, pH 7.4
# Remark: another data set of the same source
row,ECM binding vs Control Ab (pH 7.4) (ratio vs Control Ab),Binder
1,5.01,B1
2,3.66,B2
3,4.4,B3
4,3.12,B4
5,3.98,B5
6,3.91,B6
7,2.7,B7
8,3.46,B8
9,2.23,B9
10,3.13,B10
11,3.64,B11
12,3.64,B12
13,4.08,B13
14,3.83,B14
